# Results from the supplement of paper PMC3724861.
# Some of the results follow.
# Tested on: T1, Caupolican (Caup) homeodomain DNA-binding domain
# T1 sequence: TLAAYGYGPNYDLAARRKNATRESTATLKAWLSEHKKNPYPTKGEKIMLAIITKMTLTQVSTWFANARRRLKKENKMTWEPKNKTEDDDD
# Test: PBM E-score (8-mer, recovered from the published 9-mer minima) (E-score (dimensionless, -0.5 to 0.5)); Drosophila protein; higher = stronger relative binding preference, active = 0.31 or more
# Outline: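 An enrichment score, with higher meaning stronger, expresses relative binding preference for each short DNA word. The protein used was Caup's homeodomain DNA-binding domain (residues 214-303), produced by in vitro transcription and translation and tested at 100 nM on custom-designed protein binding microarrays. The 8-mer values were recovered from published 9-mer scores, each equal to the lower of its two constituent 8-mer scores.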
row,Sequence,PBM E-score
1,ACCCTCGT,inactive: -0.0438
2,ACTTCCCG,inactive: -0.0748
3,AGTTAGGA,inactive: 0.0819
4,GGCTAGTA,inactive: 0.0954
5,CGCCTAAC,inactive: -0.0152
6,CTACCGAA,inactive: -0.00615
7,CTCCAAGA,≥ 0.0411
8,CTGGAGTC,inactive: -0.133
9,TACTGTCA,inactive: 0.107
10,AGGATTCA,inactive: -0.0189
11,ACCCCCCT,inactive: -0.293
12,CAACAATA,inactive: 0.246
13,CGAAATGC,inactive: 0.0102
14,GCCGATAC,inactive: -0.0154
15,CACGCATC,inactive: -0.0387
16,ATACTCCG,inactive: -0.0434
17,AACGAGTG,inactive: 0.0806
18,TAACAGGA,inactive: 0.205
19,CGGCGCAG,inactive: -0.165
20,AGTACCAC,inactive: 0.207
21,ACCCTCAT,inactive: -0.129
22,CCGGTTAG,inactive: -0.116
23,GCTAGTGA,inactive: 0.0792
24,ATTTCGTA,≥ 0.136
25,CTTGAGAA,inactive: 0.045

row,Sequence,PBM E-score
1,AACGTTCC,inactive: -0.0613
2,GGAGTTTA,inactive: -0.00351
3,CCATTGAG,inactive: 0.00252
4,ACTTATGG,inactive: -0.099
5,GCTGGGTA,inactive: -0.104
6,ACAGATAG,inactive: 0.0925
7,ATGCACTC,inactive: -0.0467
8,ATACCAAA,inactive: 0.127
9,CCCCGCCC,inactive: -0.181
10,CCGATTTC,inactive: -0.0954
11,AACTTCTC,inactive: 0.0165
12,AGTCGGAC,inactive: 0.00218
13,TACTATGA,inactive: 0.118
14,GAGCGCTC,inactive: -0.263
15,GTTGGACA,inactive: 0.201
16,ATAGAAAG,inactive: 0.0139
17,ATACCGCG,inactive: -0.0685
18,ATTTATTG,inactive: 0.101
19,GATCTCGC,inactive: -0.112
20,CAATTCTC,inactive: 0.0354
21,ATTGTGTC,inactive: 0.258
22,ACTTATAC,inactive: 0.0474
23,AAGTAAGT,inactive: 0.0486
24,AACGGCAG,inactive: -0.118
25,AAAGTTAA,inactive: 0.102

row,Sequence,PBM E-score
1,GTTGCCTA,inactive: -0.0141
2,CTGCCGCC,inactive: -0.315
3,GACCATCA,inactive: -0.0209
4,CAAGTTGA,inactive: 0.0268
5,GTTAGCAA,inactive: 0.154
6,CACCGACG,inactive: -0.0869
7,AGGCGAGC,inactive: -0.145
8,GGGTATGA,inactive: 0.0613
9,CCAAAAGA,inactive: 0.0101
10,AATGGCTA,inactive: -0.0254
11,ACCCTAGG,inactive: -0.105
12,AGCCTCCT,≥ -0.116
13,CCCATAAG,inactive: -0.102
14,CGTCGTCC,inactive: -0.0377
15,CCCGGCGG,inactive: -0.328
16,GCTAACAC,inactive: 0.196
17,ACATGGGG,inactive: 0.209
18,GGCGAACA,inactive: 0.115
19,CAACGCAA,inactive: 0.0313
20,ATTCGGCG,inactive: -0.037
21,AGGCGTAT,≥ 0.0384
22,CGTACCTC,inactive: -0.0804
23,ATATCCAC,inactive: 0.095
24,AAATGAGC,inactive: 0.0494
25,GTTGAATA,inactive: 0.134

row,Sequence,PBM E-score
1,AGTGATGC,inactive: -0.00144
2,CATGCAGG,inactive: 0.00917
3,CTTCGCCC,inactive: -0.213
4,GAACAATC,inactive: 0.12
5,AAATCAGC,inactive: 0.0581
6,AGATTGCT,inactive: 0.0902
7,CATCACAC,inactive: 0.158
8,CACCATCC,inactive: -0.0137
9,ACTAATTA,≥ 0.25
10,GATTCGAA,inactive: 0.048
11,GCCGATCA,inactive: -0.0624
12,ACCGGGCT,inactive: -0.152
13,AGATACAC,inactive: 0.273
14,TGGACCAA,inactive: 0.0123
15,ATAGACAC,inactive: 0.259
16,CCAACCGG,inactive: -0.183
17,AGTTCCTC,inactive: -0.0606
18,CAACGGAA,inactive: 0.0457
19,GCGGACCC,inactive: -0.31
20,GTACGGCA,inactive: -0.0722
21,ACTAGACG,inactive: -0.00182
22,CACAAATG,inactive: 0.0895
23,GGTCTGTA,inactive: -0.0174
24,ATGGGGGC,inactive: -0.283
25,CAGTCCCC,inactive: -0.245

row,Sequence,PBM E-score
1,CACCAAGC,inactive: -0.0417
2,AGAGAGCG,inactive: -0.132
3,ATATGGGG,inactive: -0.122
4,AAGATACA,inactive: 0.22
5,AAGAAGTA,inactive: 0.0627
6,CAGATTGG,inactive: -0.133
7,GTCACGGA,inactive: 0.0089
8,CCAGTGAC,inactive: -0.0369
9,ACCGGCAT,inactive: -0.0173
10,ATATGAAC,inactive: 0.178
11,ATTAAAAA,inactive: 0.111
12,AGGCAACC,inactive: -0.121
13,AAGAATTC,inactive: -0.0949
14,GTCTGAAC,inactive: 0.0504
15,ACGTTTTC,inactive: 0.0344
16,AAGGCGAA,inactive: -0.165
17,GTCCGGCA,inactive: -0.0821
18,TCAAGTCA,inactive: 0.0287
19,AAAGGCGC,inactive: -0.105
20,CTCGCACC,inactive: -0.0853
21,TCGTGAGA,inactive: -0.102
22,AACCAGGC,inactive: 0.03
23,AGACTGGG,inactive: -0.111
24,ACACCGGG,inactive: -0.0438
25,ATAGTTTA,inactive: 0.162

row,Sequence,PBM E-score
1,CTAGACGA,inactive: -0.144
2,GCTTGAGA,inactive: -0.116
3,AGTACGGC,inactive: -0.082
4,AAGTTTAC,inactive: 0.134
5,CTATGGAG,inactive: -0.0365
6,TATTCTGA,inactive: 0.105
7,AGACTGCG,inactive: -0.129
8,ACTCGAAC,inactive: 0.122
9,GATGACCC,inactive: -0.0864
10,ATACCTAC,inactive: 0.112
11,GAATTGCA,inactive: 0.0373
12,CCAGCTCC,inactive: -0.13
13,AAGCAGTC,inactive: -0.101
14,TATCCTAA,inactive: 0.011
15,ACACCGGC,inactive: -0.0249
16,CGACTGTA,inactive: -0.0324
17,AGTATGTA,inactive: 0.284
18,ATCAAGTA,inactive: 0.177
19,TAGTAAAA,inactive: 0.202
20,ACAATCTG,≥ 0.179
21,CCATACGA,inactive: 0.0137
22,TAGTGCCA,inactive: -0.0266
23,ACGCTAGA,inactive: -0.0749
24,ACCGAGGA,≥ -0.00578
25,CTTCACTA,inactive: 0.0292

row,Sequence,PBM E-score
1,GGGAAAGA,inactive: -0.104
2,GGGTGCAA,inactive: -0.0364
3,TAAAGATA,inactive: 0.112
4,AAAATGCG,inactive: -0.0261
5,CAAGGCGC,inactive: -0.105
6,AAAGACTT,inactive: 0.036
7,CTGAGATA,inactive: 0.0481
8,ACTGAGCT,inactive: -0.101
9,GTCAATGA,inactive: 0.0907
10,AAGCATAC,inactive: 0.176
11,ACTGCCAC,inactive: -0.0612
12,AGTCGTCC,inactive: -0.0214
13,ACTTGGTC,inactive: -0.0293
14,ACTATGGG,inactive: -0.0727
15,CCGCCACG,inactive: -0.192
16,CACCGTTC,inactive: 0.0792
17,GTTTTCAA,inactive: 0.161
18,GGAGCATA,inactive: 0.0112
19,ACATGTCG,active: 0.416
20,ATCATGGC,inactive: -0.0613
21,GGCGCTGA,inactive: -0.13
22,TCCACGGA,inactive: -0.034
23,ATATGCCC,inactive: -0.0767
24,AATCGTTA,inactive: 0.104
25,CGTGATCA,inactive: 0.13

row,Sequence,PBM E-score
1,AGGAACTA,inactive: 0.0102
2,ATAGGAAG,inactive: -0.027
3,ATGCCAGG,inactive: -0.124
4,CGGTCCAA,inactive: -0.123
5,ACTGAGGG,inactive: -0.149
6,CTATCATC,inactive: 0.011
7,AGATGTAA,active: 0.336
8,CCCCTGAG,inactive: -0.149
9,CATACAGG,inactive: 0.152
10,ATATCAAG,inactive: 0.172
11,ATAAAGCA,inactive: 0.0727
12,TCGATACA,inactive: 0.24
13,ATCTGCCC,inactive: -0.0524
14,AAACTTAG,inactive: -0.0358
15,CGGAAAGC,inactive: -0.125
16,CATAGATA,inactive: 0.132
17,TTCGCGAA,inactive: 0.0164
18,GGCGTACC,inactive: -0.146
19,AAGGTTCC,inactive: -0.0592
20,ATCGCACC,inactive: -0.0473
21,CCAAGTGA,inactive: -0.0221
22,GTTTTGAA,inactive: 0.132
23,GGCGGTAA,inactive: -0.0226
24,AATGCGGG,inactive: -0.0824
25,CAGACATC,inactive: 0.185

row,Sequence,PBM E-score
1,ATGGAAGC,inactive: -0.0976
2,ATTAGGAG,inactive: 0.0741
3,ACAGTGAT,inactive: 0.15
4,CCGATAAC,inactive: 0.0305
5,CCTGATAA,inactive: 0.0333
6,CCCCTAAA,inactive: -0.166
7,GGATCGCA,inactive: 0.00822
8,CATGGAGA,inactive: 0.0569
9,CCAGGAGA,inactive: -0.112
10,GGGTCCGA,inactive: -0.151
11,TAACGGTA,inactive: 0.0902
12,TACTTTGA,inactive: 0.0728
13,CATCGCTC,inactive: -0.157
14,CCTAACAA,inactive: 0.196
15,GTATTAAA,inactive: 0.161
16,CAGGCTGC,inactive: -0.0833
17,CCTTCAAA,inactive: -0.0826
18,ATTCCCAG,inactive: 0.0161
19,AAGTAAAG,inactive: -0.0403
20,TAGGTAGA,inactive: -0.0179
21,TTGTCAAA,active: 0.316
22,GTACTCAC,inactive: 0.0591
23,AACCTTCG,inactive: -0.0507
